Test results from PubChem BioAssay (NCATS).
Values joined by “and” are separate entries in the source; they are usually repeats but may differ in a detail not shown here. Identical values can stand only once. Inconclusive results, whose numbers are uncertain, are shown with a selection of clear calls. Where the call is inconclusive, the potency comes from a doubtful curve fit. Active and inactive are the calls of the source. Calls come from the whole dose curve; as a rule, active = well fitted curve in the direction sought with a large enough effect; inconclusive = small, poorly fitted or top-dose-only effect, or another doubt; inactive = no such curve, though single readings can be large; an effect the other way counts as inactive or inconclusive.

Columns and labels:
[1] = qHTS for Inhibitors of Plasmodium falciparum (DD2) proliferation (AID 504314); settings: P. falciparum Dd2 in erythrocytes, SYBR Green growth, 72 h; series mostly up to 6.11 µM
Method in brief: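 P. falciparum Dd2 is grown in erythrocytes with test compound for 72 h at 37C under 5% CO2. Growth is scored by SYBR Green I fluorescence after detergent lysis, relative to artemisinin (0.29 uM) and DMSO controls.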

[2] = qHTS for Inhibitors of Plasmodium falciparum (GB4) proliferation (AID 504315); note: nearly all actives have a fitted effect of over 50% in size; settings: P. falciparum GB4 in erythrocytes, SYBR Green DNA, 72 h; activity change, negative = inhibition: at 6.7 µM (top of the series)
Method in brief: (§1)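 Parasite growth measured as SYBR Green DNA fluorescence (ex 485, em 535 nm) after overnight lysis following 72 h culture at 37 °C, 0.3% parasitemia, 2.5% hematocrit. Values normalized against DMSO and 0.29 uM artemisinin controls, with plate-stack correction.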

[3] = qHTS for Inhibitors of Plasmodium falciparum (7G8) proliferation (AID 504316); note: nearly all actives have a fitted effect of over 65% in size; settings: P. falciparum 7G8 in erythrocytes, SYBR Green DNA, 72 h; activity change, negative = inhibition: at 6.7 µM (top of the series)
Method in brief: as §1

[4] = qHTS for Inhibitors of Plasmodium falciparum (HB3) proliferation (AID 504318); note: nearly all actives have a fitted effect of over 60% in size; settings: P. falciparum HB3 in erythrocytes, SYBR Green DNA, 72 h; activity change, negative = inhibition: at 7.21 µM (top of the series)
Method in brief: as §1

[5] = qHTS for Inhibitors of Plasmodium falciparum (CP250) proliferation (AID 504320); settings: P. falciparum CP250 in erythrocytes, SYBR Green DNA, 72 h; series mostly up to 6.7 µM
Method in brief: as §1
Potency is the fitted concentration of half-maximal effect; tags give direction and shape of the fitted curve.

Row | Compound | Potency [1] | Potency [2] | Potency [3] | Potency [4] | Potency [5]
1 | CC1=CC[C@@H](COc2ccccc2)O[C@@]2(C1)C(=O)N(Cc1ccccc1C(F)(F)F)c1cccc(Br)c12 | inconclusive: 4.24 µM [inhibitor, single point] | inconclusive: 2.13 µM [inhibitor, single point] | inconclusive: 3.01 µM [inhibitor, single point] | active: 1.69 µM | inconclusive: 3.38 µM [inhibitor, single point]
2 | COc1cc2c(cc1OC)[C@@H]1O[C@](CCCCN3C(=O)c4ccccc4C3=O)(C2)Oc2cc(C)n(Cc3ccccc3)c(=O)c21 | inconclusive: 1.34 µM [inhibitor, partial curve] | inconclusive: 1.69 µM [inhibitor, partial curve] | active: 1.51 µM | active: 1.69 µM | active: 1.69 µM
3 | COC(=O)[C@@H]1CC[C@H](C)[C@@H](c2ccc(C)cc2)N1C(=O)c1ccc(C=NO[C@H](C)CN2CCCc3nc(C)c(C)cc32)cc1 | inconclusive: 2.12 µM [inhibitor, single point] | inconclusive: 3.79 µM [inhibitor, single point] | inconclusive: 1.69 µM [inhibitor, single point] | inconclusive: 2.51 µM [inhibitor, partial curve, poor fit] | active: 1.51 µM
4 | N#Cc1ccc2c(c1)C[C@]1(c3ccsc3)Oc3c(c(=O)oc4ccc(F)cc34)[C@@H]2O1 | inconclusive: 4.24 µM [inhibitor, single point] | inconclusive: 2.13 µM [inhibitor, single point] | inconclusive: 1.69 µM [inhibitor, single point] | inconclusive: 4.26 µM [inhibitor, single point] | inactive
5 | CCc1cc2c(nc1CC)CCN(CCC(C)=NOC[C@@H](C)[C@H](OCc1ccccc1)C(C)C)C2 | inconclusive: 4.24 µM [inhibitor, single point] | inconclusive: 4.26 µM [inhibitor, single point] | inconclusive: 1.51 µM [inhibitor, partial curve] | inconclusive: 2.94 µM [inhibitor, partial curve] | inconclusive: 1.9 µM [inhibitor, single point]
6 | COc1cc2c(c(OC)c1OC)C(c1ccccc1)(c1ccccc1)CC2NC(=O)C(F)(F)F (stereo not given) | inconclusive: 1.69 µM [inhibitor, partial curve] | inconclusive: 1.69 µM [inhibitor, partial curve] | inconclusive: 1.9 µM [inhibitor, single point] | active: 2.39 µM | inconclusive: 4.26 µM [inhibitor, single point]
7 | C#CCOCC#CC[C@@]1(C(=O)OC)C=C[C@@H](C)[C@H](c2ccccc2Br)N1C(=O)C(F)(F)F | inconclusive: 3 µM [inhibitor, partial curve, poor fit] | inactive | inconclusive: 1.51 µM [inhibitor, single point] | inconclusive: 2.39 µM [inhibitor, single point] | inactive
8 | COC(=O)C1=C(C)N(Cc2ccccc2)C(=NCc2cc(OC)c(OC)c(OC)c2)NC1c1cccc(F)c1 (stereo not given) | active: 1.19 µM | inconclusive: 2.39 µM [inhibitor, partial curve] | inconclusive: 2.69 µM [inhibitor, single point] | inconclusive: 1.69 µM [inhibitor, partial curve] | inconclusive: 1.35 µM [inhibitor, partial curve]
9 | COC(=O)C1=C(C(=O)OC)[C@@H]2N(Cc3ccccc3)c3ccccc3[C@@]23C[C@@H](C(=O)OC)N(S(=O)(=O)c2ccc(C(F)(F)F)cc2)C3=N1 | inconclusive: 0.585 µM [inhibitor, single point] | active: 0.536 µM | active: 0.478 µM | active: 0.478 µM | active: 0.536 µM
10 | CC1=CC[C@@H](COc2ccccc2)O[C@@]2(C1)C(=O)N(Cc1ccc(Br)cc1)c1cccc(Br)c12 | inconclusive: 3 µM [inhibitor, single point] | inconclusive: 3.38 µM [inhibitor, single point] | inconclusive: 2.39 µM [inhibitor, single point] | inconclusive: 2.13 µM [inhibitor, single point] | inconclusive: 2.13 µM [inhibitor, single point]
11 | C[C@]12C[C@@](C)(C=C1C=Cc1ccc(F)cc1)C(=O)C[C@H]2c1ccc(F)cc1 | inconclusive: 3 µM [inhibitor, single point] | inconclusive: 1.69 µM [inhibitor, partial curve] | inconclusive: 2.13 µM [inhibitor, single point] | active: 1.69 µM | inconclusive: 1.9 µM [inhibitor, single point]
12 | COC(=O)[C@H]1O[C@@H](c2cc(OC)c(C)c(OC)c2OCc2ccccc2)[C@H](C)[C@@H]2O[C@]12C | inconclusive: 3.78 µM [inhibitor, single point] | active: 2.13 µM | inconclusive: 3.01 µM [inhibitor, single point] | inconclusive: 2.39 µM [inhibitor, single point] | inconclusive: 2.13 µM [inhibitor, single point]
13 | COC(=O)C1=C(C(=O)OC)[C@@H]2N(Cc3ccccc3)c3ccccc3[C@@]23C[C@@H](C(=O)OC)N(S(=O)(=O)c2ccc(OC)cc2)C3=N1 | inconclusive: 1.04 µM [inhibitor, partial curve, poor fit] | inconclusive: 4.26 µM [inhibitor, single point] | inconclusive: 2.39 µM [inhibitor, single point] | active: 1.9 µM | inconclusive: 3.01 µM [inhibitor, single point]
14 | CC=C(C)[C@H](O)C[Si](C)(C)c1ccccc1 | inconclusive: 4.24 µM [inhibitor, single point] | inconclusive: 1.69 µM [inhibitor, single point] | inconclusive: 1.69 µM [inhibitor, partial curve] | inconclusive: 2.13 µM [inhibitor, single point] | inconclusive: 1.69 µM [inhibitor, single point]
15 | COC(=O)C1=C(C(=O)OC)[C@@H]2N(C)c3ccc(OC)cc3[C@@]23C[C@@H](C(=O)OC)N(C(=O)NCCBr)C3=N1 | inconclusive: 3.78 µM [inhibitor, single point] | active: 2.13 µM | inconclusive: 1.9 µM [inhibitor, single point] | active: 2.13 µM | inconclusive: 4.26 µM [inhibitor, single point]
16 | COC(=O)N1C2=C(c3ccccc3[C@@H]1CC(=O)Nc1ccc3ccc4cccc5ccc1c3c45)[C@@H]1C(=O)N(c3ccccc3)C(=O)[C@@H]1[C@H](C)C2 | inconclusive: 0.656 µM [inhibitor, partial curve, poor fit] | active: 1.51 µM | active: 1.51 µM | active: 2.13 µM | active: 1.51 µM
17 | CC(C)=CCN1C(=O)[C@]2(O[C@H](COc3ccccc3)CC3=CCCC32)c2c(Br)cccc21 (stereo not given in full) | active: 3.78 µM | active: 1.9 µM | inconclusive: 3.01 µM [inhibitor, single point] | active: 1.9 µM | inconclusive: 3.38 µM [inhibitor, single point]
18 | CCCCn1c(C)cc2c(c1=O)[C@H]1O[C@](CCCCN3C(=O)c4ccccc4C3=O)(Cc3ccccc31)O2 | inconclusive: 1.5 µM [inhibitor, partial curve] | inconclusive: 1.51 µM [inhibitor, partial curve] | active: 1.69 µM | inconclusive: 1.69 µM [inhibitor, partial curve] | inconclusive: 3.79 µM [inhibitor, single point]
19 | COC(=O)[C@]1(CC=Cc2ccccc2)C=C[C@@H](C)[C@H](c2ccccc2Br)N1C(=O)C(F)(F)F | inconclusive: 3 µM [inhibitor, single point] | active: 1.69 µM | inconclusive: 3.01 µM [inhibitor, single point] | active: 1.9 µM | inconclusive: 2.13 µM [inhibitor, single point]
20 | CC1(OC(=O)C2CCCC2)C(=O)C=C2C=C(c3ccsc3)N(C3CCCCC3)C=C2C1=O (stereo not given) | inconclusive: 1.5 µM [inhibitor, partial curve] and inconclusive: 2.9 nM [inhibitor, full curve, poor fit] | inconclusive: 1.9 µM [inhibitor, single point] | inconclusive: 1.51 µM [inhibitor, partial curve] and inactive | inconclusive: 3.98 µM [inhibitor, single point] and inconclusive: 1.69 µM [inhibitor, partial curve, poor fit] | inconclusive: 4.26 µM [inhibitor, single point]
21 | CC[C@@]12C=C(C=Cc3ccccc3)[C@](CC)(C1)[C@H](c1ccccc1)CC2=O | inconclusive: 3.78 µM [inhibitor, single point] | inconclusive: 1.69 µM [inhibitor, single point] | inconclusive: 1.69 µM [inhibitor, partial curve] | inconclusive: 1.9 µM [inhibitor, partial curve] | inconclusive: 3.01 µM [inhibitor, single point]
